This passage reports binding signal results from article PMC5836133.

Some of the results follow. At the low end of the ranking, values are background and their order means little.

In this experiment the test system is T1, GST-NbGlk1(82-244).
T1 sequence: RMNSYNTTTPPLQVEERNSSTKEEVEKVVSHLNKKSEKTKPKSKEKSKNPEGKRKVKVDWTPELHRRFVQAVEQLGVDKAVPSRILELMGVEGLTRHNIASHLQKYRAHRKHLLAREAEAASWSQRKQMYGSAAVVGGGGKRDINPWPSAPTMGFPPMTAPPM
Put plainly: protein-binding microarray.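 Further: rank-based score ranging −0.5 to +0.5 with E above 0.45 taken as significant binding.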 The conditions noted are these: NbGlk1 is a Golden2-like transcription factor of Nicotiana benthamiana; high values mean tight binding; most listed sequences are background and not binding sites; double strand, one strand shown.
The sequence AGTCTATG showed a binding signal of -0.118 E-score. The value for ACTTCAGG was -0.0502 E-score; that for ACGTCACG was -0.0816 E-score. Consider ACAGGCGA, for which the binding signal is 0.00804 E-score. As for ATTTACTG, the figure is 0.179 E-score; as for ACATATAC, 0.0453 E-score.

Regarding ATCAGGAC, the binding signal came out at 0.121 E-score.

With ATGAGATC, the binding signal is 0.369 E-score. As for CAATTCGA, the figure is -0.103 E-score; as for ATGTTGAG, 0.0331 E-score.

For AACAGACA, the binding signal turned out to be 0.0656 E-score.

Take AACGTCTG: the binding signal is -0.232 E-score. The value for AGAATGGC was 0.0395 E-score; that for ATTGTTCG was 0.168 E-score; that for AAATGGCA was -0.137 E-score.

The sequence ATGGTTGC returned a binding signal of -0.133 E-score.

Turning to AACTCAAT, the binding signal amounted to 0.0219 E-score. The value for CAAGTAAA was 0.0961 E-score; that for ACCAGAGA was 0.0877 E-score; that for AACCAATG was -0.0901 E-score.

Turning to AAGTTGTC, the binding signal is -0.0549 E-score.

As to AAACTTAT, the binding signal is 0.0935 E-score.

Regarding AAGACCAG, the binding signal was -0.198 E-score. As for ACGAGTCG, the figure is -0.132 E-score; as for ACGACCTG, -0.199 E-score; as for ATCGACGA, 0.0244 E-score. As for ACAACTTC, the figure is 0.0159 E-score; as for CACCTGAC, -0.216 E-score. The sequence AGTGAAGC registered a binding signal of -0.326 E-score. As for AACAATAC, the figure is 0.123 E-score. The value for AAGTCGAT was 0.0692 E-score; that for ATCCTATC was 0.258 E-score; that for AGCTCCGA was -0.141 E-score. As to AGAATAAA, the binding signal was determined as 0.111 E-score. Consider CAAGGCAA, for which the binding signal turned out to be 0.0148 E-score.

In turn, CAGATCTC yielded a binding signal of 0.423 E-score. On to ACACAGGC, for which the binding signal was -0.0796 E-score.

In turn, ACGCAAGG came in with a binding signal of -0.06 E-score. ACAGGCTC showed a binding signal of -0.26 E-score. Take AACCAAGT: the binding signal is -0.0506 E-score. For AGCGGCCA, the binding signal was -0.203 E-score. The value for ACAGTACT was -0.0119 E-score; that for ATCTGCCA was 0.256 E-score; that for AGGGTAAT was 0.262 E-score. The sequence ATGGATCA returned a binding signal of 0.00621 E-score. The value for ACAGGTCA was -0.081 E-score; that for AAACGCGC was 0.0641 E-score; that for CACATAGG was -0.119 E-score. The value for CAACGAAC was -0.144 E-score. The value for ATTACGAA was 0.341 E-score; that for ACATTTCG was 0.192 E-score. Sequence CAACCTTC returned a binding signal of -0.194 E-score.

The sequence CAAAGAAA came in with a binding signal of 0.0504 E-score.

Take AGATTTGC: the binding signal stood at 0.469 E-score. On to AGTCTTTG, for which the binding signal is -0.0203 E-score. Take AGGGCTGA: the binding signal was -0.175 E-score. The value for CACGTTCC was -0.0575 E-score; that for ACTTTTGA was -0.0218 E-score; that for ACGCGTAA was 0.0978 E-score. As for AAACTGTA, the figure is -0.125 E-score. As for AACGAGGA, the figure is -0.0079 E-score; as for AACACATA, 0.00785 E-score. In turn, ATAGTGCG came in with a binding signal of 0.0274 E-score. The value for ATGTTTAA was 0.0991 E-score; that for AAGGCCCA was -0.243 E-score. Consider AGCCCGAT, for which the binding signal was 0.0183 E-score.

ACAAACTA registered a binding signal of 0.0851 E-score. As for AAGGAGTC, the figure is -0.161 E-score; as for ACTAATAC, -0.0271 E-score; as for AAGAGGTA, -0.0613 E-score. With ACTAGAAT, the binding signal came out at 0.177 E-score.

Sequence AGGATCCA showed a binding signal of 0.237 E-score.

ACCATCCG had a binding signal of -0.0868 E-score. As for ATGTGACC, the figure is -0.232 E-score; as for AAATTAAA, 0.0849 E-score. The value for AGAGCACC was -0.325 E-score. Regarding AAGTACGG, the binding signal is -0.118 E-score. As for ACATAATA, the binding signal was 0.13 E-score. The value for AGTAATGA was 0.00256 E-score; that for AACTAGCG was -0.134 E-score; that for CAGCAACC was -0.101 E-score.

Regarding CAACACTA, the binding signal turned out to be 0.00718 E-score.

As to AGCAAGAA, the binding signal was -0.0277 E-score. The value for AGCGCTCC was -0.162 E-score; that for ATATGAAA was 0.266 E-score. As for AGGGTTAA, the figure is -0.0971 E-score; as for ACAGATCA, 0.0773 E-score.

In the case of ACCCGTCG, the binding signal is -0.193 E-score. The value for ACGACATC was 0.109 E-score; that for ATATGATA was 0.219 E-score. Regarding ACACTAGC, the binding signal is -0.14 E-score. As to AATTGCTC, the binding signal was 0.0671 E-score. ATCCAGAC displayed a binding signal of 0.19 E-score. For the sequence AGAAACTA, the binding signal turned out to be 0.0805 E-score.

Take ATTACTCA: the binding signal was 0.208 E-score. As for ACACCGAC, the figure is -0.218 E-score.

ATGAGGCC yielded a binding signal of -0.207 E-score. Consider ACACATCC, for which the binding signal was -0.0375 E-score. As for AGCGAAGA, the figure is -0.0249 E-score; as for CACGCTAC, 0.00212 E-score.

With ATTATGCC, the binding signal is 0.117 E-score.

ACAGATAC: the binding signal came to 0.276 E-score. As for ATGACACA, the figure is 0.0337 E-score. The value for AACCGACT was -0.117 E-score; that for AACTCAGA was 0.0536 E-score; that for ACTCATTG was 0.0113 E-score. As for AACAACGC, the figure is -0.0594 E-score; as for ATGGTGTA, 0.0435 E-score; as for AAAAACTC, 0.0348 E-score.

ACATCGGT: the binding signal was -0.128 E-score. Regarding AGTCTTTC, the binding signal is -0.0646 E-score. The value for AAATGTTA was 0.101 E-score; that for ATCTTGTC was 0.31 E-score.

As for ATTTTAGA, the binding signal turned out to be 0.221 E-score. Take AAAGTTCT: the binding signal stood at 0.0429 E-score.

For the sequence ACGATGTG, the binding signal is -0.0692 E-score. As for ACGCAAAG, the figure is -0.119 E-score.

Regarding AAGAGCCA, the binding signal is -0.086 E-score. The sequence ATTCCATG returned a binding signal of 0.229 E-score. For ACGCCAGG, the binding signal is -0.267 E-score.

Take ACGGTCAG: the binding signal is -0.174 E-score.

ATTTAGAC had a binding signal of 0.144 E-score.

For the sequence AGATCGCG, the binding signal came to 0.464 E-score.

With CAAGTTCA, the binding signal turned out to be 0.0808 E-score. As for AAGTCAGG, the figure is -0.0361 E-score. The value for AGTGATAT was 0.298 E-score; that for ACACGTGG was -0.0907 E-score; that for AATAGCCT was -0.133 E-score. AAGTGCAG gave a binding signal of -0.141 E-score. Take ATAAGGGA: the binding signal is -0.0325 E-score. Sequence ACGGCTAT had a binding signal of -0.0409 E-score. As for AGGGTAGC, the binding signal was -0.278 E-score. As for AACTTGCT, the figure is -0.0985 E-score. For the sequence ATGGAGCC, the binding signal is -0.333 E-score. The value for AGTAGCCA was -0.217 E-score; that for AAAGAAGC was -0.128 E-score; that for CAACATGA was 0.0303 E-score. For the sequence AGCTGCGA, the binding signal is -0.121 E-score. In turn, ATATAATC registered a binding signal of 0.297 E-score. As for ACCGTGCA, the figure is -0.0141 E-score; as for AGAAAGCA, -0.109 E-score; as for AACCCATG, -0.207 E-score. As to ACGCTGTC, the binding signal is -0.229 E-score.

ACCATACG registered a binding signal of -0.0596 E-score. As for ACATCCTA, the figure is -0.0295 E-score; as for AACACAGT, -0.124 E-score; as for CAGCCTGG, -0.129 E-score. AATACGTG returned a binding signal of 0.216 E-score. The value for AGCTAAAA was -0.0774 E-score. As for AGTCGATG, the figure is -0.0548 E-score; as for ATAGACAC, 0.012 E-score; as for ACCGCCCG, -0.0529 E-score. The value for ATCGATCG was 0.128 E-score; that for AGTTTAAA was 0.0899 E-score.

Sequence AGACAAAG came in with a binding signal of -0.161 E-score. Sequence AATCATGC came in with a binding signal of 0.05 E-score. On to ATCTCACG, for which the binding signal was 0.2 E-score. As for ACACGCGT, the figure is -0.0669 E-score; as for ACTTTACT, 0.0151 E-score. The sequence AGCGTGCG gave a binding signal of -0.132 E-score. The value for AAAGCTCC was -0.263 E-score; that for AGTTATTG was -0.0139 E-score; that for ATAACAGC was -0.0595 E-score. On to AACCCTGA, for which the binding signal was -0.000472 E-score. The value for CACAACTC was -0.0401 E-score; that for ATGTAGGC was -0.121 E-score.

In the case of ACATTCCG, the binding signal was 0.0221 E-score. Take ATAACCCA: the binding signal was -0.0342 E-score. Sequence AATACGCG displayed a binding signal of 0.149 E-score.

As to AGTATTAT, the binding signal was determined as 0.133 E-score. As for ACCGTCCT, the figure is -0.161 E-score; as for AAAAGTAC, -0.13 E-score.
